Reference: US20230416326A1 (LETO LABORATORIES, published 2023)

B1: Complex 2 (heterodimer complex of IL-2/15 chimera 1 and Sushi-hIgG4Fc) (Fc fusion)
chain 1: APTSSSTKKTQLQLEHLLLDLQMILNGIQSMHIDATLYTESDVHPSCKVTAMKCFLLELQVISLESGDASIHDTVENLIILANNSLSSNGNVTESGCKECEELEEKNIVEFLNRFITFAQSIISTLT
chain 2: ITCPPPMSVEHADIWVKSYSLYSRERYICNSGFKRKAGTSSLTECVLNKATNVAHWTTPSLKCIR[no letters for human IgG4 Fc with S228P (EU numbers)]
notes: also called IL-2/15 chimera 1-Sushi-Fc
B2: IL-15(N72D)/Sushi-hIgG1Fc complex (Fc fusion)
chain 1: [no letters for about 120 residues]
chain 2: ITCPPPMSVEHADIWVKSYSLYSRERYICNSGFKRKAGTSSLTECVLNKATNVAHWTTPSLKCIR[no letters for human IgG1 Fc]
notes: Prepared according to the literature (Han et al., Cytokine 56 (2011) 804-810); The literature construct may differ
B3: Complex 1 (heterodimer complex of IL-2/15 chimera 1 and Sushi-hIgG1Fc) (Fc fusion)
chain 1: B1 chain 1
chain 2: B2 chain 2
notes: as for B1

Key:
[1] = molecular target: T1, IL-2/15R β and γ on Mo7e cells (UniProt P14784 27-551; P31785 23-369, limits assumed); test: cell-based or functional assay
T1 sequence (looked up) 1: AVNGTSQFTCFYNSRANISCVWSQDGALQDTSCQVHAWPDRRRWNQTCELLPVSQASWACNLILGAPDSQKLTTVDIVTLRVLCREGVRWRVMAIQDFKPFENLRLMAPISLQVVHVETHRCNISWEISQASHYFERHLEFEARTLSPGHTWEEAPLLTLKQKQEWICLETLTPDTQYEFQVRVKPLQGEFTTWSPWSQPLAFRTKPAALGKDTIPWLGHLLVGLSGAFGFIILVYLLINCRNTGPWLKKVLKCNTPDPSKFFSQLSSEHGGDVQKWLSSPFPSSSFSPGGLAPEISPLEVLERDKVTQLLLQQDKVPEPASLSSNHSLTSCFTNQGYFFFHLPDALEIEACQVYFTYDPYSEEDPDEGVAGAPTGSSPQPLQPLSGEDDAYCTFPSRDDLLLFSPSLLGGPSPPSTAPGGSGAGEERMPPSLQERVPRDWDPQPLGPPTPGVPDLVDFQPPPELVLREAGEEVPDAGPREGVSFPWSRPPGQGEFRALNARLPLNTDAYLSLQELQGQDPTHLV
T1 sequence (looked up) 2: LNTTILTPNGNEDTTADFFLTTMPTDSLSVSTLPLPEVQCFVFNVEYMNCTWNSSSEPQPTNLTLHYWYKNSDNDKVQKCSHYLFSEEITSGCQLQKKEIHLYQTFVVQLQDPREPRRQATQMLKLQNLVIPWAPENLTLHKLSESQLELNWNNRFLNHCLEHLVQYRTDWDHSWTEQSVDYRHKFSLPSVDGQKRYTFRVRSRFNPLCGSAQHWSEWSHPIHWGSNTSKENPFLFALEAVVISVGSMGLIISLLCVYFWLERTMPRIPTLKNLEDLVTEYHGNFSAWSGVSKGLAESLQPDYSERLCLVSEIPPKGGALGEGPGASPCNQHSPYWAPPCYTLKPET

[2] = molecular target: T2, IL2Rα-his (UniProt P01589 22-240, limits assumed); test: BLI (Octet RED96), receptor immobilised on sensor
T2 construct: Made in-house; also called interleukin-2 receptor alpha; CD25; not shown: his tag
T2 sequence (looked up): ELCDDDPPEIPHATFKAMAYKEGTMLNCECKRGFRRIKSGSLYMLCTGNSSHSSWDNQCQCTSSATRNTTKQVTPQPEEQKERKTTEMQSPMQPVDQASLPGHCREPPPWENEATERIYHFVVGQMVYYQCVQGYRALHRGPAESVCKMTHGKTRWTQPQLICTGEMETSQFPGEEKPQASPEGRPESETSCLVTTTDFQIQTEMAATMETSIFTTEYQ
Procedure: (§1) BLI was used to determine the affinity of a target protein for a receptor by a method with reference to (Estep, P et al., High throughput solution Based measurement of antibody-antigen affinity and epitope binning. MAbs, 2013.5 (2): p. 270-8). The receptor proteins IL-15Rα-his, IL2Rα-his, and IL2/15Rβ-Fc/Fc used in the experiment were each produced by the company of the present application, and both an IL-2 derivative without IL2Rα binding and an IL-2 complex without IL2Rα binding were prepared according to the description in Patent Publication CN111018961A. An IL-15(N72D)/Sushi-hIgG1Fc complex was prepared according to the literature (K.-p. Han et al./Cytokine 56 (2011) 804-810). A buffer was prepared according to the following formula: 10 mM HEPES, 150 mM NaCl, 3 mM EDTA, 0.1% BSA, and 0.05% tween20. Receptor proteins were each pre-immobilized in advance on a corresponding sensor. Then the steps of baseline, loading, baseline, association, and dissociation were conducted according to the established method (see Estep, P et al., High throughput solution Based measurement of antibody-antigen affinity and epitope binning. MAbs, 2013. 5 (2): p. 270-8). Data acquisition and analysis were conducted using the Fortebio Octet RED96 software Data acquisition 11.0 and Data analysis 11.0, respectively. Results are shown in Table 1 (the smaller the value, the stronger the affinity).

[3] = molecular target: T3, IL-15Rα-his (Homo sapiens (Human), UniProt Q13261 31-205, limits assumed); test: BLI (Octet RED96), receptor immobilised on sensor
T3 construct: also called interleukin-15 receptor alpha; not shown: his tag
Procedure: as §1

[4] = molecular target: T4, IL2/15Rβ-Fc/Fc (UniProt P14784 27-240); test: BLI (Octet RED96), receptor immobilised on sensor
T4 construct: Made in-house; The label 'Fc/Fc' is not explained; it is read here as one receptor-Fc chain paired with an Fc-only chain; also called IL2Rβ; CD122; not shown: Fc; second Fc chain implied by the label 'Fc/Fc'
Procedure: as §1

Row | Binder | EC50 (nM), promotion of Mo7e cell proliferation [1] [nM] | binding result [2] | binding result [3] | Kd [4] [pM]
1 | B1 | 0.329 | no binding (tested: 100 nM) | no binding (tested: 100 nM) | 654
2 | B2 | 0.09 | no binding (tested: 100 nM) | no binding (tested: 100 nM) | 55.6
3 | B3 | – | no binding (tested: 100 nM) | no binding (tested: 100 nM) | 337
